According to PubChem BioAssay AID485281 (National Center for Advancing Translational Sciences (NCATS), 2010):
About 260 (0.074%) of roughly 350,000 compounds were called active. Inconclusive results, whose numbers are uncertain, are shown with a selection of clear calls. The call rests on the fitted dose curve; in most records, active means well fitted inhibition curve with a large enough effect; inconclusive means small, poorly fitted or top-dose-only effect; inactive means no such curve, though single readings can be large or run the other way. A potency beside an inconclusive call is a rough fit, not a confirmed value.

The compounds below were run against Ferritin light chain (Equus caballus) (UniProt P02791) (assay: qHTS Assay for Identification of Novel General Anesthetics). Conditions: apoferritin/1-aminoanthracene competitive binding, fluorescence; series mostly up to 77.5 µM.
In short: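 Concentration-response curves derived by four-parameter Hill fitting of normalized fluorescence, where compounds displaced 1-AMA from 10 uM horse apoferritin following a brief 10 min room-temperature incubation; propofol titration acted as positive control.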
Further: nearly all actives have a fitted effect of over 20% in size.
Potency means the concentration at half of the fitted maximal effect; tags describe the fitted curve by direction and shape.

Chain of UniProt P02791 (P02791 whole entry, looked up): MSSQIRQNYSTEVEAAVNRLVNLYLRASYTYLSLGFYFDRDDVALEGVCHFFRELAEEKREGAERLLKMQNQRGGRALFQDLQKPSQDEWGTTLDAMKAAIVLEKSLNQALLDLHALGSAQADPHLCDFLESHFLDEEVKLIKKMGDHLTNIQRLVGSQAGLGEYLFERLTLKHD

Potency, inconclusive:
COc1ccc(C2CC(c3ccccc3)Nc3nc(NC(=O)c4ccco4)nn32)cc1 (stereo not drawn) 35.5 µM [inhibitor, partial curve], Cn1cccc1C(=O)OCC(=O)c1cc2ccccc2o1 20 µM [inhibitor, partial curve], Nc1nc(SCC(=O)Nc2ccc(Oc3ccccc3)cc2)n[nH]1 31.6 µM [inhibitor, single point], Cn1cccc1-c1cc(C(=O)N/N=C/C=C/c2ccccc2)[nH]n1 17.8 µM [inhibitor, partial curve], O=C(c1cccc(C(=O)N2CCN(c3ccccc3)CC2)c1)N1CCN(c2ccccc2)CC1 56.2 µM [inhibitor, single point], COc1cc(CN(C)CCc2ccccc2)ccc1OCc1ccccc1 35.5 µM [inhibitor, partial curve], O=c1ccc(/C=C/c2ccccc2)nn1Cc1ccccc1 22.4 µM [inhibitor, partial curve], CCC(=O)NC(=S)Nc1cccc(C(C)=O)c1 31.6 µM [inhibitor, single point], CCCCCCCSc1nnc(N)s1 12.6 µM [inhibitor, partial curve], COC(=O)c1cc(C)nc2c1c(=O)nc(SCc1ccccc1Cl)n2C1CC1 22.4 µM [inhibitor, partial curve], Cc1ccc(-n2cnc3sc(C)c(C)c3c2=O)cc1 3.98 µM [inhibitor, full curve, poor fit], CCOCC(=O)Nc1ccc(C)c(Cl)c1 11.2 µM [inhibitor, partial curve], CC(C)CCn1c(CN2CCN(Cc3ccccc3)CC2)nc2c1c(=O)n(C)c(=O)n2C 25.1 µM [inhibitor, partial curve], c1cncc(CN=C2Nc3ccccc3CS2)c1 25.1 µM [inhibitor, partial curve], C=CCn1c(NCc2cc(C)ccc2O)nc2ccccc21 50.1 µM [inhibitor, single point], CCc1ccccc1NC(=O)c1onc(C)c1Cl 35.5 µM [inhibitor, partial curve], COC(=O)c1cc(=O)n(CCc2ccccc2F)c(=Nc2ccc(F)c(Cl)c2)s1 3.55 µM [inhibitor, full curve, poor fit], CCc1ccc(NC(=O)CC2S/C(=N/N=C3CCCCCC3)NC2=O)cc1 (stereo not drawn) 35.5 µM [inhibitor, single point], Nc1nnc(CSc2ccc(Cl)cc2)s1 10 µM [inhibitor, partial curve], O=C(CSc1nnc(-c2ccccc2O)o1)Oc1ccc(Br)cc1 44.7 µM [inhibitor, partial curve], Cc1ccc(Nc2nc(Nc3ccc(C)cc3)nc(SC3=NCCS3)n2)cc1 50.1 µM [inhibitor, partial curve, poor fit], O=C(Nc1cccc2c1CCCC2)N1CCOc2ccc(Cl)cc21 35.5 µM [inhibitor, partial curve], Cc1cc(C(=O)NCC(=O)OCC(=O)N(C2CCCCC2)C2CCCCC2)ccc1[N+](=O)[O-] 12.6 µM [inhibitor, partial curve], NC(=O)/C(=N\OC(=O)c1ccco1)c1nc(-c2ccc(Br)cc2)cs1 35.5 µM [inhibitor, partial curve], COCn1c(-c2cccc(Br)c2)nc2ccccc21 25.1 µM [inhibitor, partial curve], CC(C)(C)OC(=O)NCCCC[C@H](NC(=O)c1nc[nH]c1C(=O)N1CCN(C(=O)OC(C)(C)C)CC1)C(=O)OC(C)(C)C 28.2 µM [inhibitor, partial curve], CN(C)S(=O)(=O)c1ccc(NC(=S)NC(=O)c2cccs2)cc1 20 µM [inhibitor, partial curve], Cc1ccc(NS(=O)(=O)c2cc(C(=O)NCc3ccccn3)ccc2Cl)cc1C 28.2 µM [inhibitor, partial curve], COc1ccc(C(C)=O)cc1CSc1nnc(Nc2ccc(C)cc2C)s1 11.2 µM [inhibitor, partial curve], COc1ccc(-c2ccc(OC(=O)NC3CCS(=O)(=O)C3)cc2)cc1 (stereo not drawn) 35.5 µM [inhibitor, single point], NNC(=S)NC1CCCCCCCCCCC1 50.1 µM [inhibitor, single point], O=C(NC1CCCC1)c1csc2c1CCCC2 39.8 µM [inhibitor, partial curve], COc1ccc(C(=O)C2CCCN(Cc3ccc4nonc4c3)C2)cc1F (stereo not drawn) 39.8 µM [inhibitor, single point], Cc1ccc2cccc(OCc3ccc(F)cc3)c2n1 22.4 µM [inhibitor, partial curve], Brc1ccc(Oc2nsnc2N2CCOCC2)cc1 44.7 µM [inhibitor, single point], Cc1ccc(SCC(=O)c2ccc[nH]2)cc1 17.8 µM [inhibitor, partial curve], O=C(Cn1nc(-c2ccccc2)c2ccccc2c1=O)NCC1CCCO1 (stereo not drawn) 17.8 µM [inhibitor, partial curve], COc1ccccc1C1C(C(=O)c2ccc(C)o2)=C(O)C(=O)N1c1cc(C)on1 (stereo not drawn) 31.6 µM [inhibitor, single point], CCOC(=O)c1ccc(N=c2sc(C(=O)OC)cc(=O)n2-c2ccc(C(=O)OCC)cc2)cc1 50.1 µM [inhibitor, partial curve], CC(C)N(C(=O)CN1C(=O)NC2(CCCCCC2)C1=O)C(C)C 44.7 µM [inhibitor, single point], CN(C(=O)COC(=O)CNC(=O)C12CC3CC(CC(C3)C1)C2)c1ccccc1 20 µM [inhibitor, partial curve], CN(C)CCN(Cc1ccco1)C(=O)c1oc2ccccc2c1NC(=O)c1cccc(F)c1 5.01 µM [inhibitor, single point], O=S(=O)(NCCCc1ccccc1)c1ccccc1 44.7 µM [inhibitor, partial curve], CN(CC(=O)Nc1ccccc1Cl)C1CCCCC1 15.8 µM [inhibitor, partial curve], CC1=CCC2C(=O)N(c3cccc(C(=O)N(C)C4CCCCC4)c3)C(=O)C2C1 (stereo not drawn) 31.6 µM [inhibitor, single point], CCOc1ccc(CC(=O)N2CCc3cc(OC)c(OC)cc3C2COc2ccc3c(C)cc(=O)oc3c2)cc1 (stereo not drawn) 7.08 µM [inhibitor, partial curve], Oc1ccc(NCc2ccc(OCc3ccccc3)cc2)cc1 14.1 µM [inhibitor, partial curve], O=C(Cn1nnc(-c2ccc(CN3CCOCC3)cc2)n1)Nc1nc(-c2ccccc2)cs1 5.62 µM [inhibitor, full curve], CCOc1ccc(Oc2cc(NC(=O)c3ccco3)cc([N+](=O)[O-])c2)cc1 28.2 µM [inhibitor, partial curve], CCN(CC)S(=O)(=O)c1ccc2c(c1)N(CC(=O)NCCCN1CCN(c3cc(Cl)ccc3C)CC1)C(=O)CO2 56.2 µM [inhibitor, single point], CS(=O)(=O)Nc1ccccc1C(=O)OCc1cc(=O)n2nc(C3CCCCC3)sc2n1 56.2 µM [inhibitor, single point], CCNC(=O)NC(=O)CSc1cccc(C(F)(F)F)c1 35.5 µM [inhibitor, partial curve]

Potency, inactive:
Cc1nn(-c2ccc(F)cc2)c2sc(C(=O)OCC(=O)N3CCC(C)CC3)cc12, COc1ccc(-c2nc(C#N)c(NCCc3ccccc3)o2)cc1OC, Cc1ccc(NC(=O)CN2C(=O)CC(c3ccc(C)c(C)c3)=Nc3ccccc32)cc1, O=C1NCCN1c1ncc([N+](=O)[O-])s1, COc1ccc(CCNC(=O)CS(=O)(=O)Cc2nc(-c3cccc(Cl)c3)oc2C)cc1OC, O=C(Cn1c(=O)n(Cc2ccc(C(=O)NCc3ccc4c(c3)OCO4)cc2)c(=O)c2ccccc21)Nc1ccccc1F, CCc1nnc(N2C(=O)c3cccc4cccc(c34)C2=O)s1, CC(=O)NC(CCS(C)(=O)=O)C(=O)Nc1cc(Cl)ccc1Cl (stereo not drawn), CCOC(=O)c1ccc(N2C(=O)CC(N3CCC(Nc4ccc(F)cc4)CC3)C2=O)cc1 (stereo not drawn), O=C(c1ccccc1)c1cc2ccccc2oc1=O, O=C(NC(=S)Nc1cccc2cnccc12)c1ccccc1, O=c1oc2c3c4c(cc2c(C(F)(F)F)c1CCN1CCOCC1)CCCN4CCC3, CN(C)CCCNc1cc(C(C)(C)C)nc2c(-c3ccccc3)cnn12, CCn1c(N2CCN(S(=O)(=O)CC)CC2)nc2ccccc21, CCCOc1ccc(NC(=O)C(=O)NCCCN2CCOCC2)cc1, COC(=O)c1[nH]c2cccc(OC)c2c1NC(=O)CN(C)CC1OCCO1
